In all, about 33,000 sequences were measured (“E-score (-0.5 to 0.5)”: median about -0.017, highest 2% from about 0.3 on). This is one part of the list.
Target: T1, Sut1 (UniProt P53032)
T1 sequence: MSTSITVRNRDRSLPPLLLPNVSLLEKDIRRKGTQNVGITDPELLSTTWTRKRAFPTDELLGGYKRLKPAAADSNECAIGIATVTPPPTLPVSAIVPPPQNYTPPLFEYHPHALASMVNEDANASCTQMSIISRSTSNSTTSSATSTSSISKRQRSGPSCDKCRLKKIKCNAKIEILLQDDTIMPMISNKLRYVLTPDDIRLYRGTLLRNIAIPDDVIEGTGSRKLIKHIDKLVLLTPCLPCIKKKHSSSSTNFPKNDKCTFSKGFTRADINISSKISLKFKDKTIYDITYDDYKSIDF
Experiment: PBM E-score (8-mer binding enrichment) (E-score (-0.5 to 0.5)); higher = stronger / more preferred TF binding; most listed sequences are background and not binding sites
Settings: protein concentration: 200 nM; construct: GST-full length
How it was run: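 Yeast transcription factors carrying a GST tag, as full-length proteins or DNA-binding domains, were produced by PURExpress in vitro transcription/translation. About 100-200 nM protein was applied to universal all-10-mer Agilent arrays, double-stranded by primer extension on fresh or once-stripped slides. Bound protein was detected with fluorescent anti-GST, and scans were normalised with masliner. The Universal PBM Analysis Suite gave each ungapped eight-base word, pooled with its reverse complement, an E-score, a modified Wilcoxon-Mann-Whitney statistic.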

Sequence	PBM E-score
TCTGGCAA	-0.0931
CCGCCATA	-0.043
AAGCCACA	-0.00109
CCCACTCC	0.101
CATCTCCG	0.478
GCACACCA	-0.15
ATTCTTCC	0.226
GTCCATTA	0.176
CCCGGAGC	0.406
TCGCGTCA	-0.0854
ATGTCTGC	-0.282
GCACTATA	-0.0711
AACGACCC	-0.156
CAGATGGA	-0.0312
CGCGATAA	0.137
TGACAGAA	0.117
ATGAAAAC	0.219
AACAGGTC	-0.249
ACTACACA	-0.00137
GGGTGATA	-0.125
CTCCTAAG	-0.111
CACAGACA	-0.0065

Sequence	PBM E-score
CCGATAAA	0.343
ATGCATTG	-0.0575
AGGGGCCG	-0.272
ATTACGCA	0.0411
CTATGCCC	-0.247
AAACTGGG	-0.0399
GACCATCC	-0.0701
ATTCCATG	0.0438
AAACCTCT	0.0749
CGAGGTCC	0.121
ACTCCGTG	0.473
ACCTTGTC	-0.206
AGAGTTCC	-0.0848
AGAGTCCG	0.449
GATATACA	0.194
CCTTGGTA	0.102
CACGTCGA	-0.116
AGGTAGGC	-0.131
AGCACTAA	0.191
CATTGAGG	-0.0783
CGGGATTC	0.0676
CTTTGGTC	0.146

Sequence	PBM E-score
AACGCTAA	-0.0697
AGTTCTCC	0.0174
ATCCATGG	-0.201
GCTTGTAA	0.18
CTAAATCC	0.193
GAGATCAA	0.0659
CTCACAAG	-0.131
CGTATATA	0.219
CCCCGAAG	0.0869
CCTATAGA	-0.0234
AAGCTGAT	0.0247
GAAGGGAC	-0.158
ATGTTTCA	0.0326
CCGGGACC	0.138
AAGACCAT	0.0588
GGATCAAA	0.0395
AGGGAGAG	-0.141
GACAGGTA	0.0384
GGATCGCC	-0.233
AAAGACGA	0.123
CACAGCAC	-0.205
ACAAGTAC	-0.0657

Sequence	PBM E-score
AGGACAAG	-0.238
AATTTTCG	0.0639
GGCTACAC	0.012
CTATCTTC	0.124
ACGCGAGA	-0.035
GCAAACGA	0.0369
AGGACTAT	-0.102
GAAGCGGA	0.103
GAGCAAAC	-0.0639
CCCCTAAC	-0.187
CCCGGCGA	-0.00069
CATCACAG	-0.218
ATGACCAT	0.00046
AACGACGT	-0.0293
CTGCATGA	-0.246
CACGAAGG	-0.121
AACGCCAT	-0.0733
CCAACGCG	-0.023
CATTGACA	-0.237
AGTATATG	0.00722
